Assay results reported in PubChem BioAssay AID1671189 (National Center for Advancing Translational Sciences (NCATS), 2021).
The whole screen tested about 1,100 compounds, of which about 70 (6%) were called active. The shares of active, inactive and inconclusive entries below differ from those in the screen. Calls follow the shape of the dose curve; as a rule, active = well fitted curve in the direction sought with a large enough effect; inconclusive = small, poorly fitted or top-dose-only effect, or another doubt; inactive = no such curve, though single readings can be large or run the other way. A potency beside an inconclusive call is a rough fit, not a confirmed value.

These compounds were tested against Polyunsaturated fatty acid lipoxygenase ALOX12 (Homo sapiens) (UniProt P18054) (assay: Confirmatory qHTS assay for inhibitors of human arachidonate 12S-lipoxygenase (ALOX12): Round 2). Conditions: purified human 12-LOX, xylenol orange absorbance; activity change, negative = inhibition: at 125 µM (top of the series).
Chain of UniProt P18054 (P18054 whole entry, looked up): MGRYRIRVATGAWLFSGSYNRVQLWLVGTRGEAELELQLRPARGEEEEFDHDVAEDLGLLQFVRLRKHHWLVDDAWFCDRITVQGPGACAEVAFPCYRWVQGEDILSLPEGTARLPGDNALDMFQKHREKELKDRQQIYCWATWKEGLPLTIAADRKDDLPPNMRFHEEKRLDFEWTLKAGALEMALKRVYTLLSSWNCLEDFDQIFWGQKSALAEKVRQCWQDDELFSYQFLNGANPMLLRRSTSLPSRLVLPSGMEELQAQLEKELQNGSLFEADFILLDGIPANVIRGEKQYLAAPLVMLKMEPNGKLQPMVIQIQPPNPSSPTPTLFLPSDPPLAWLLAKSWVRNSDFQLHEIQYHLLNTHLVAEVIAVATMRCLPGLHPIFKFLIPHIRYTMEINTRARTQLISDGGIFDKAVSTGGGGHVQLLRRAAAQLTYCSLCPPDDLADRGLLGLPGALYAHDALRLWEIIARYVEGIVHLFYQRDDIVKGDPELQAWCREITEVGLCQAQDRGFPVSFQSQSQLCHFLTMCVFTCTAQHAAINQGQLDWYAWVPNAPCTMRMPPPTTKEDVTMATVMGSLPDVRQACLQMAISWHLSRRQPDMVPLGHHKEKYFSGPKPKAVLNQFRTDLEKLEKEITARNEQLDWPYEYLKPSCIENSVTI
Procedure, shortened: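 Purified human enzyme (150 nM) in 25 mM Hepes, 0.01% Triton X-100, pH 7.0, preincubated 15 min with compound, then 40 uM arachidonic acid for 30 min at room temperature. Hydroperoxide detected by Fe-XO, read as 573/405 nm absorbance ratio.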
% is scaled to controls: 0 for no effect and ±100 for the full control effect; potency is read from the fitted curve at half-maximal effect.

| Structure (SMILES) | Potency | activity change, negative = inhibition |
| --- | --- | --- |
| O=C(NCc1ccncc1)c1cc(C2CC2)nc2c1c(C1CCCN1)nn2-c1ccccc1 (stereo unspecified) | inactive |  |
| Cc1noc(C)c1C(=O)N1CCN(c2ccc(Cl)nn2)C(=O)C1 | inconclusive: 138 µM [inhibitor, single point] |  |
| O=[S+]([O-])(Nc1cccc2cccnc12)c1ccc(NCc2ccc(Cl)cc2O)cc1 | inconclusive: 19.3 µM [inhibitor, partial curve] |  |
| O=C1NCc2ccccc2CC12CCN(Cc1ccc3ccccc3c1)C2 (stereo unspecified) | inconclusive: 87.9 µM [inhibitor, partial curve] |  |
| O=C1Nc2ccccc2CC12CN(Cc1c[nH]c3ccccc13)C2 | inconclusive: 77.5 µM [inhibitor, partial curve] |  |
| O=[S+]([O-])(Nc1ccc2ccccc2c1)c1ccc(NCc2ccc(Cl)cc2O)cc1 | inconclusive: 19.3 µM [inhibitor, partial curve] |  |
| O=C1NCc2ccccc2CC12CCN(Cc1cccc(OC(F)(F)F)c1)C2 (stereo unspecified) | inconclusive: 17.5 µM [inhibitor, full curve] |  |
| CN1CC(=O)N(C2CCCNC2)Cc2c(NCC3CCCCCC3)ncnc21 (stereo unspecified) | inactive |  |
| O=C(CCC[C@H]1NC[C@@H]2C[C@H]1CN(Cc1ccccc1)C2)Nc1ccc(N2CCOCC2)cc1 | inconclusive: 39.8 µM [inhibitor, partial curve] |  |
| Cn1cc(-c2ccccc2OC(F)(F)F)c2nc(CN3CCNC(=O)C3)cn2c1=O | inconclusive: 0.282 µM [inhibitor, full curve, poor fit] |  |
| O=C(C1CCCC1)N1Cc2ccccc2CC2(CCN(Cc3ccncc3)C2)C1 (stereo unspecified) | inactive |  |
| O=[S+]([O-])(c1ccccc1)N1CC(Oc2ccc3c(c2)OCO3)C1 | inconclusive: 27.5 µM [inhibitor, partial curve, poor fit] |  |
| CCc1ccc(CN2CCCC3(Cc4ccccc4CNC3=O)C2)s1 (stereo unspecified) | inconclusive: 77.5 µM [inhibitor, partial curve, poor fit] |  |
| NC(=O)[C@H]1C[C@@H](O)[C@H](O)[C@H]2[C@@H]1SC(=Nc1ccc(Cl)cc1)N2CC1CCCCC1 | inconclusive: 28.2 µM [inhibitor, partial curve] |  |
| CN(C)c1cccc(C(=O)N2CCC3(CC2)NC(=O)N(c2cccc(Cl)c2)N3)c1 | inconclusive: 14.1 µM [inhibitor, partial curve] |  |
| CC(c1cccc(-c2cnc(C(=O)O)cn2)c1)N1CCCC1 (stereo unspecified) | inconclusive: 0.199 µM [inhibitor, full curve, poor fit] |  |
| O=C(O)CCC(=O)N1Cc2ccccc2CC2(CCCN2CC2CCNC2)C1 (stereo unspecified) | inactive |  |
| O=C(c1ccc2c(c1)OCO2)N1CCC(c2nnc3n2CCNC3)CC1 | inconclusive: 55.5 µM [inhibitor, partial curve] |  |
| COc1ccc(N2CC3CCC(C2)N3Cc2cccc(Cl)c2)cc1 | inactive |  |
| Cc1ccc(C(=O)N2CCC3(CC2)CC(N(Cc2ccccc2)C2CC2)CCO3)s1 (stereo unspecified) | inconclusive: 3.98 µM [inhibitor, full curve] |  |
| CCOC(=O)c1c(NC(=O)CSc2nnnn2-c2ccc(OC)cc2)sc(C)c1C | inactive |  |

| Structure (SMILES) | Potency | activity change, negative = inhibition |
| --- | --- | --- |
| c1cc(-c2nc(CC3CCNC3)no2)ccn1 (stereo unspecified) | inconclusive: 0.562 µM [inhibitor, full curve, poor fit] |  |
| O=C1NCc2ccccc2CC12CCN(Cc1ccc(Cl)cc1)C2 (stereo unspecified) | active: 27.5 µM |  |
| CSc1ccc(-c2ccccc2C=O)cc1 | inconclusive: 114 µM [inhibitor, partial curve, poor fit] |  |
| COCCN1C(=O)[C@@H]2C[C@@H](CN2Cc2ccc3ccccc3n2)Oc2ccccc21 | inconclusive: 6.31 µM [inhibitor, full curve] |  |
| Fc1ccc(CN2CCC3(CC(c4cccc(C(F)(F)F)c4)=NO3)C2)cc1 (stereo unspecified) | inconclusive: 78.4 µM [inhibitor, single point] |  |
| CCc1nc2c(c(-c3ccc(OC)cc3)n1)CCN([S+](=O)([O-])c1ccc(N(C)C)cc1)CC2 | inconclusive: 62.2 µM [inhibitor, partial curve] |  |
| O=c1[nH]c(C2CCCN(Cc3ccc(-c4cccs4)cc3)C2)nc2ccc(F)cc12 (stereo unspecified) | inconclusive: 44.1 µM [inhibitor, partial curve, poor fit] |  |
| CN1CCC2(Cc3ccccc3CN(C(=O)Cc3cccc(Cl)c3)C2)C1 (stereo unspecified) | inactive |  |
| CC(=O)NC(c1cccs1)c1cc(Br)c2cccnc2c1O (stereo unspecified) | inactive |  |
| CCCC1(CO)CCCN(Cc2cc(-c3ccc(C)cc3)no2)C1 (stereo unspecified) | inconclusive: 35.5 µM [inhibitor, partial curve] |  |
| COc1ccccc1Nc1ncc2c(n1)CN(C(=O)c1ccccc1)CCN2 | inconclusive: 0.708 µM [inhibitor, full curve] |  |
| N#Cc1nc(-c2cccc3ccccc23)oc1NC1CNC1 | inconclusive: 27.3 µM [inhibitor, partial curve, poor fit] |  |
| O=C1NCc2ccccc2CC12CCCN(Cc1ccc(Cl)s1)C2 (stereo unspecified) | inconclusive: 55.5 µM [inhibitor, partial curve] |  |
| FC(F)(F)c1cccc(C2=NOC3(CCN(Cc4ccsc4)C3)C2)c1 (stereo unspecified) | inconclusive: 111 µM [inhibitor, single point] |  |
| COc1ccc(CN2CCCC23Cc2ccccc2CNC3=O)c(O)c1 (stereo unspecified) | inactive |  |
| O=[S+]([O-])(Nc1ccc(-c2ccccc2)cc1)c1ccc(NCc2ccc(Cl)cc2O)cc1 | inconclusive: 17.2 µM [inhibitor, partial curve] |  |
| CN(Cc1ccccc1)C(=O)c1ccc(CSc2nc3cccnc3n2Cc2ccccc2F)cc1 | inconclusive: 55.3 µM [inhibitor, partial curve, poor fit] |  |
| N#Cc1cccnc1-c1ccc(C(=O)O)cc1 |  | inconclusive: -31.9% [inhibitor] |
| O=[S+]([O-])(Nc1ccccc1)c1ccc(NCc2ccc(Cl)cc2O)cc1 | inconclusive: 21.7 µM [inhibitor, partial curve, poor fit] |  |
| O=C1NCc2ccccc2CC12CCN(Cc1c(F)cccc1Cl)CC2 |  | inconclusive: -31.2% [inhibitor] |
